In the supplement of paper PMC11283458:
This is one part of the list. Repeats are few or missing, and single values can be far off.

Columns and labels:
[1] = test system: Mef2d microexon dual Nano/Firefly luciferase splicing reporter in Neuro-2a cells; assay: B-score of Firefly/Nano luminescence ratio, V1 Mef2d microexon reporter (B-score (plate-normalised)); higher = more Mef2d microexon inclusion; conditions: 24 h
[2] = test system: Mef2d microexon dual Nano/Firefly luciferase splicing reporter in Neuro-2a cells; assay: B-score of Nano/Firefly luminescence ratio, V2 Mef2d microexon reporter (B-score (plate-normalised)); higher = more Mef2d microexon inclusion; conditions: 24 h
[3] = test system: Asph alternative exon (endogenous); assay: delta PSI of alternative exon relative to 0.4% DMSO control (RT-PCR) (percentage points); higher = more exon inclusion; conditions: concentration: not stated (optimised per compound); Neuro-2a
Method: (§1)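 Reads PSI of the Mef2d reporter microexon and of endogenous mouse neural alternative exons. dPSI is relative to the 0.4% DMSO control, single replicate.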

[4] = test system: Mast2 alternative exon (endogenous); assay: as above; conditions: concentration: not stated (optimised per compound); Neuro-2a
Method: as §1

[5] = test system: Trappc9 microexon (endogenous); assay: as above; conditions: concentration: not stated (optimised per compound); Neuro-2a
Method: as §1

[6] = test system: Zdhhc20 alternative exon (endogenous); assay: as above; conditions: concentration: not stated (optimised per compound); Neuro-2a
Method: as §1

[7] = test system: Ergic3 microexon (endogenous); assay: as above; conditions: concentration: not stated (optimised per compound); Neuro-2a
Method: as §1

[8] = test system: Mgrn1 alternative exon (endogenous); assay: as above; conditions: concentration: not stated (optimised per compound); Neuro-2a
Method: as §1
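Wherever B-score of Nano/Firefly luminescence ratio, V2 Mef2d microexon reporter is given: compounds at 4 µM (PKI library 0.5 µM) on Dox-inducible N2A Flp-In cells with PEST-tagged luciferases, 384-well plates, B-score from per-plate median-polish residual over median absolute residual.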
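Wherever delta PSI of alternative exon relative to 0.4% DMSO control (RT-PCR) is given: exons read include endogenous Mef2d, Mast2, Ergic3 and Trappc9 microexons plus the longer neural-regulated Zdhhc20, Mgrn1 and Asph cassette exons, alongside the reporter microexon.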

CCOC(=O)c1cc(C)nc(Sc2ccccc2NC(=O)c2ccccc2)c1C#N (4 µM)
B-score [1]: 3.03 | B-score [2]: 1.28

N#CC1(C#N)C(C#N)(C#N)C12CCCCC2
delta PSI of alternative exon [3]: -7.07 | delta PSI of alternative exon [4]: -7.43 | delta PSI of alternative exon [5]: 1.42 | delta PSI of alternative exon [6]: -9.17

O=C(C=C(C(=O)c1ccccc1)c1ccccc1)c1ccc2c(c1)OCCO2
delta PSI of alternative exon [3]: -2.64 | delta PSI of alternative exon [4]: 0.307 | delta PSI of alternative exon [5]: 2.6 | delta PSI of alternative exon [6]: -3.55

Cc1onc(-c2c(Cl)cccc2Cl)c1C(=O)SCC(=O)Nc1ccc(Cl)cc1
delta PSI of alternative exon [3]: -6.87 | delta PSI of alternative exon [5]: -0.43 | delta PSI of alternative exon [6]: -5.45

COCCCNC(=S)N/N=C/c1cccc(OC)c1O
delta PSI of alternative exon [3]: 4.35 | delta PSI of alternative exon [4]: 11.3 | delta PSI of alternative exon [5]: -1.68 | delta PSI of alternative exon [6]: 9.57

CCN(CC)C(=S)NC(=S)c1ccc(C)cc1
delta PSI of alternative exon [3]: -8.03 | delta PSI of alternative exon [4]: 0.553 | delta PSI of alternative exon [5]: -3.6 | delta PSI of alternative exon [6]: -8.97

CCOC(=O)c1cnn2c1nc(N1CCCC1)c1ccccc12
delta PSI of alternative exon [3]: 1.01 | delta PSI of alternative exon [4]: 0.562 | delta PSI of alternative exon [5]: -1.29 | delta PSI of alternative exon [6]: 1.32

COc1cc(/C=C/C(=O)N2CCC=CC2=O)cc(OC)c1OC [Piperlongumine]
delta PSI of alternative exon [3]: -8.71 | delta PSI of alternative exon [5]: -0.631 | delta PSI of alternative exon [6]: -14.7

O=C(NCCNc1ccc(C(F)(F)F)cn1)Nc1ccccc1Cl
delta PSI of alternative exon [3]: -24.1 | delta PSI of alternative exon [4]: -26.7 | delta PSI of alternative exon [5]: -0.969 | delta PSI of alternative exon [6]: -19.7

COc1ccc(NC(=O)CSC(=O)c2c(-c3c(Cl)cccc3Cl)noc2C)cc1
delta PSI of alternative exon [3]: -12.6 | delta PSI of alternative exon [4]: -9.19 | delta PSI of alternative exon [5]: -1.83 | delta PSI of alternative exon [6]: -11.6

C=CCn1c(N)c(C(=O)NN=Cc2cccs2)sc1=S
delta PSI of alternative exon [3]: -0.784 | delta PSI of alternative exon [5]: -2 | delta PSI of alternative exon [6]: 1.5

Nc1ncn(C2OC(CO)C(O)C2O)c(=O)n1 (stereo not given) [Azacytidine-5]
delta PSI of alternative exon [3]: -10.4 | delta PSI of alternative exon [4]: -16.3 | delta PSI of alternative exon [5]: 0.747 | delta PSI of alternative exon [6]: -12

COC(=O)c1cc(OC)c(OC)cc1NS(=O)(=O)c1ccc(OC)cc1 (4 µM)
B-score [1]: -6.02 | B-score [2]: -6.7

O=C(NCCNc1nccc(C(F)(F)F)n1)Nc1ccccc1Cl
delta PSI of alternative exon [3]: -10.4 | delta PSI of alternative exon [4]: -21.6 | delta PSI of alternative exon [5]: -5.22 | delta PSI of alternative exon [6]: -17.6

O=c1cnc2ccccc2n1Cc1cc(Cl)c2c(c1)OCCO2 (4 µM)
B-score [1]: 7.04 | B-score [2]: 1.72

N[C@@H](CSC(c1ccccc1)(c1ccccc1)c1ccccc1)C(=O)O [S-Trityl-L-cysteine]
delta PSI of alternative exon [3]: -5.65 | delta PSI of alternative exon [5]: -1.06 | delta PSI of alternative exon [6]: -7.11

Cc1noc(C)c1C(=O)ON=C(N)c1cccc(C(F)(F)F)c1 (4 µM)
B-score [1]: 13.4 | B-score [2]: 2.4

Cc1onc(-c2c(Cl)cccc2Cl)c1C(=O)SCC(=O)Nc1ccc(F)cc1
delta PSI of alternative exon [3]: -10.6 | delta PSI of alternative exon [5]: -2.21 | delta PSI of alternative exon [6]: -10.8

C[n+]1c(C=Cc2ccc(Cl)c(Cl)c2)ccc2ccccc21 (4 µM)
B-score [1]: 5.73 | B-score [2]: 3.03

CC(=O)Nc1ccc([C@H](C)C(=O)Nc2ncc(C(C)C)s2)cc1
delta PSI of alternative exon [3]: -12.2 | delta PSI of alternative exon [5]: 2.8 | delta PSI of alternative exon [6]: -9.03

COc1cc2ncn(-c3cc(OCc4ccccc4C(F)(F)F)c(C(N)=O)s3)c2cc1OC
delta PSI of alternative exon [3]: -0.841 | delta PSI of alternative exon [4]: -6.07 | delta PSI of alternative exon [5]: 0.684 | delta PSI of alternative exon [6]: -2.86

CN(C)c1ccc(-n2nnnc2SCC(=O)c2ccc(F)cc2)cc1 (4 µM)
B-score [1]: -7.88 | B-score [2]: -12.3

COc1cc(OC)c(/C=C2/C(=O)Nc3ccccc32)c(OC)c1
delta PSI of alternative exon [3]: -4.6 | delta PSI of alternative exon [5]: 0.0849 | delta PSI of alternative exon [6]: -3.56

O=C(Nc1ccc(-n2nc(C(F)(F)F)cc2-c2cccs2)cc1)c1cccs1
delta PSI of alternative exon [3]: 2.35 | delta PSI of alternative exon [5]: -1.58 | delta PSI of alternative exon [6]: 2.42

O=C(C=Cc1ccc(OC(F)(F)F)cc1)NNC(=O)c1ccc(Cl)cc1 (4 µM)
B-score [1]: 21.2 | B-score [2]: 1.36

O=C(Nc1cccc(Cl)c1)Nc1ccc(Sc2ccccc2)nc1Sc1ccccc1
delta PSI of alternative exon [3]: 2.12 | delta PSI of alternative exon [4]: 0.596 | delta PSI of alternative exon [5]: -1.51 | delta PSI of alternative exon [6]: 1.38

N#CCc1ccc(Nc2nc(Nc3cc(C4CCC4)[nH]n3)c3ccccc3n2)cc1
delta PSI of alternative exon [7]: 6.79 | delta PSI of alternative exon [4]: 27.4 | delta PSI of alternative exon [8]: 4.28 | delta PSI of alternative exon [6]: 20.7

O=C(CCCCCCC(=O)Nc1ccccc1)NO [Vorinostat]
delta PSI of alternative exon [7]: 17 | delta PSI of alternative exon [8]: 4.99 | delta PSI of alternative exon [6]: 23.5

Oc1nc2ccccc2nc1-c1c[nH]c2ccccc12
delta PSI of alternative exon [7]: -12.7 | delta PSI of alternative exon [8]: 3.73 | delta PSI of alternative exon [6]: 1.47

CC1(c2ccc([N+](=O)[O-])cc2)NN=C(c2ccccc2)S1 (stereo not given)
delta PSI of alternative exon [7]: -7.29 | delta PSI of alternative exon [8]: 3.19 | delta PSI of alternative exon [6]: -0.116
